# Experimental data as given in PubChem BioAssay AID686978 (National Center for Advancing Translational Sciences (NCATS), 2013).
# “And” between values parts separate entries of the source, which are not always exact repeats. Equal entries are not always repeated. About 64,000 (15%) of roughly 420,000 compounds were called active. This list was built around the results that the source calls inconclusive (neither active nor inactive); the mix of calls is not that of the screen. Calls come from the whole dose curve; as a rule, active = well fitted inhibition curve with a large enough effect; inconclusive = small, poorly fitted or top-dose-only effect; inactive = flat fitted curve, though single readings scatter. Potencies beside an inconclusive call are fits to weak or partial responses and may not hold up.
# Assay: qHTS for Inhibitors of human tyrosyl-DNA phosphodiesterase 1 (TDP1): qHTS in cells in absence of CPT; note: nearly all actives have a fitted effect of over 55% in size
# Conditions: DT40 Tdp1-/- hTDP1 cells, no CPT, ATP luminescence, 48 h; activity change, negative = growth inhibition: at 46.2 µM (top of the series)
# How it was run: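 Growth of hTDP1-complemented DT40 Tdp1-knockout cells is measured by ATP luminescence after at least 48 hr compound exposure at 37 °C, with DMSO substituting for the 20 nM CPT used in the parallel screen.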
# % is set by controls: 0 for no effect and ±100 for the full control effect; potency is the fitted concentration of half-maximal effect; tags give direction and shape of the fitted curve.
SMILES,Potency,"activity change, negative = growth inhibition"
CN(CC(=O)Nc1ccccc1Cl)CC(=O)N1CCc2ccccc21,"inconclusive: 29.1 µM [inhibitor, single point]",–
COc1cccc(NC(=O)c2ccc3c(c2)N(CC(=O)N2CCCCC2)C(=O)C(C)(C)O3)c1,"inconclusive: 25.9 µM [inhibitor, single point]",–
COc1ccc2c(c1)[nH]c1c(=O)n(CC3CCCO3)cnc12 (configuration not stated),–,inactive: -3.8%
Cc1c(NC(=S)Nc2ccc(Cl)cc2)c(=O)n(-c2ccccc2)n1C,–,inactive: 0.411%
CCOC(=O)C1CCCN(C(=O)c2cccc(S(=O)(=O)N(C)c3ccc(OC)cc3)c2)C1 (configuration not stated),"inconclusive: 25.9 µM [inhibitor, single point]",–
O=C(COC(=O)c1cccc(NS(=O)(=O)c2ccc(F)c(F)c2)c1)NC(=O)NC1CCCC1,"inconclusive: 13 µM [inhibitor, partial curve]",–
COc1ccccc1NC(=O)CC(c1ccc(F)cc1)c1ccco1 (configuration not stated),"inconclusive: 25.9 µM [inhibitor, single point]",–
COCCCNC(=O)CC1C[C@H](C(=O)N2CCOCC2)[C@@]2(C)c3[nH]c4ccccc4c3CCN2C1=O (some centres not stated),–,inactive: -0.112%
COc1cccc(C2N(Cc3ccccc3)C(=O)C2(F)F)c1OC (configuration not stated),–,inactive: -9%
O=C(c1cnc(N2CCN(c3ncccn3)CC2)c2ccccc12)N1CCN(c2ccccn2)CC1,"inconclusive: 18.4 µM [inhibitor, partial curve]",–
CCOC(=O)c1c(NC(=O)C2COc3ccccc3O2)sc(C(C)=O)c1C (configuration not stated),active: 6.51 µM,–
Cc1ccc(C)c(NC(=O)Cn2cc(S(=O)(=O)Cc3cccc(Cl)c3)c3ccccc32)c1,"inconclusive: 23.1 µM [inhibitor, single point]",–
CCn1c(SCCC(C)C)nnc1-c1c[nH]c2ccccc12,"inconclusive: 20.6 µM [inhibitor, single point]",–
CN1CCN(CCc2ccc(Cl)c(Cl)c2)CC1,active: 29.9 µM,–
CCN(CC)S(=O)(=O)c1cccc(NC(=O)CCNC(=O)c2ccccc2Cl)c1,"inconclusive: 16.4 µM [inhibitor, single point]",–
COc1ccc(NC(=O)CN(C)C(=O)CSc2nc3ccccc3s2)cc1,"inconclusive: 2.59 µM [inhibitor, single point]",–
CCCOc1ccc2nc(C)c(CCC)c(SC(=N)N)c2c1,"inconclusive: 0.58 µM [inhibitor, full curve, poor fit]",–
Cc1cc(Br)ccc1SCC(=O)OCC(=O)NCc1ccc2c(c1)OCO2,–,inactive: 6.68%
COC(=O)c1ccc(NC(=O)c2ccc3c(c2)OCO3)cc1,–,inactive: -13.9%
COc1ccc(-c2sc3ccccc3c2-c2ccc(OCCN(C)C)cc2)cc1,active: 23.1 µM,–
O=S1(=O)CC(N2CCN(CCO)CC2)CN1Cc1cn(Cc2ccccc2)nn1 (configuration not stated),–,inactive: -20.7%
O=C(NCc1ccccc1)c1ccc2c(c1)CCN2S(=O)(=O)c1ccc(Cl)cc1,"inconclusive: 18.4 µM [inhibitor, single point]",–
CCOc1ccc(NC(=O)CSC(N)=O)cc1,"inconclusive: 29.1 µM [inhibitor, single point]",–
COc1ccc(C2C(Oc3ccccc3C)C(=O)N2Cc2ccc(F)cc2)cc1OC (configuration not stated),"inconclusive: 29.1 µM [inhibitor, single point]",–

SMILES,Potency,"activity change, negative = growth inhibition"
CCOc1ccc(NC(=O)N2CCN(c3ccc(Cl)c(Cl)c3)CC2)cc1,active: 1.3 µM,–
CCCCn1c(N)c(N(CC(C)C)C(=O)c2ccc3c(c2)NC(=O)C(C)S3)c(=O)[nH]c1=O (configuration not stated),–,inactive: -21.2%
COC(=O)c1ccc2nc(-c3ccc(OC)c(OC)c3)c(Cc3ccc(C)cc3)n2c1,active: 20.6 µM,–
Cc1ccc(NC(=O)c2oc(=O)c3ccccc3c2-c2ccccc2)c(C)c1,"inconclusive: 25.9 µM [inhibitor, single point]",–
COc1cc(C(=O)Nc2ccc3ccccc3c2)cc(OC)c1OC,active: 0.651 µM,–
COc1ccc2cc3c(N)nn(C(=O)c4ccccc4Cl)c3nc2c1,"inconclusive: 5.2 nM [inhibitor, full curve, poor fit] and inconclusive: 651 nM [inhibitor, partial curve, poor fit]",–
CCCc1ccc(C(=O)NNC(=O)c2ccc(Br)cc2)cc1,–,inactive: -12.4%
COc1ccc(C(=O)C(C)N(C(=O)c2ccc(Cl)cc2Cl)N2C(=O)C3C4C=CC(C4)C3C2=O)cc1 (configuration not stated),"inconclusive: 18.4 µM [inhibitor, single point]",–
CC(=O)Nc1ccc(NC(=O)Nc2ccc(C)c(C)c2)cc1,"inconclusive: 32.6 µM [inhibitor, single point]",–
CCc1ccccc1OCC(=O)NCC1COc2ccccc2O1 (configuration not stated),"inconclusive: 10.3 µM [inhibitor, partial curve]",–
COc1ccc2c(c1)C(C)=CC(C)(C)N2C(=O)C(C)N1C(=O)c2ccccc2C1=O (configuration not stated),"inconclusive: 29.1 µM [inhibitor, single point]",–
Cc1ccc(OCC(=O)Nc2ccccc2N2CCOCC2)c(C)c1,"inconclusive: 29.1 µM [inhibitor, single point]",–
O=C1CC(NCCc2ccccc2)C(=O)N1CCc1ccccc1 (configuration not stated),–,inactive: -1.07%
Cc1cc(Cl)cc(C)c1OCCOCCNCc1ccccc1,"inconclusive: 25.9 µM [inhibitor, single point]",–
Oc1ccccc1CNCC12CC3CC(CC(C3)C1)C2,"inconclusive: 16.4 µM [inhibitor, single point]",–
CNC(=O)OCc1snc(-c2ccccc2)c1COC(=O)NC,–,inactive: -7.38%
COc1ccc(C2=CSC3=C(C(=O)c4cccc(S(=O)(=O)N(C)C)c4)CCN23)cc1,active: 16.4 µM,–
COc1cccc(N(C(=O)c2cnccn2)C(C(=O)NC2CCCCC2)c2ccc(Cl)cc2)c1 (configuration not stated),–,inactive: -21.2%
Cn1nnc2c(N3CCN(c4ccc(F)cc4)CC3)ncnc21,"inconclusive: 23.1 µM [inhibitor, single point]",–
Cc1cc(C)n2c(Br)c(CSc3nc4ccccc4o3)nc2n1,"inconclusive: 23.1 µM [inhibitor, single point]",–
COc1ccc(Cl)cc1NC(=O)Cn1ccn(-c2cc(C)cc(C)c2)c(=O)c1=O,"inconclusive: 18.4 µM [inhibitor, single point]",–
Cc1ccccc1CNC(=O)CCS(=O)(=O)c1cc2c3c(c1)CCN3C(=O)CC2,–,inactive: -7.25%
Cc1occc1-c1nnc(SCC(=O)Nc2nc(-c3ccccc3)cs2)o1,–,inconclusive: -30.7% [inhibitor]
O=C(/C=C/c1ccco1)NC(=S)Nc1ccc(O)c(-c2nc3ccccc3s2)c1,active: 20.6 µM,–

SMILES,Potency,"activity change, negative = growth inhibition"
O=C(Nc1ccc(F)cc1)C1C2CCC3C(CCC21)C3(Cl)Cl (configuration not stated),active: 18.4 µM,–
COc1ccc(-c2csc(-c3ccc(O)cc3)n2)cc1,active: 6.51 µM,–
CN1C(=O)/C(=C\c2ccco2)N=C1c1ccc(Cl)cc1Cl,–,inactive: -20.8%
Cc1ccc(N(C(=O)Cn2nnc(-c3ccccc3F)n2)C(C(=O)NC2CCCC2)c2ccncc2)cc1 (configuration not stated),"inconclusive: 16.4 µM [inhibitor, single point]",–
Cc1ccc(Nc2sc(C(=O)c3ccccc3)c(N)c2S(=O)(=O)c2ccccc2)cc1Cl,"inconclusive: 29.1 µM [inhibitor, single point]",–
Cc1ccc2c(c1)N(C(=O)CCC(=O)N1CCc3ccccc3C1)CCO2,"inconclusive: 16.4 µM [inhibitor, single point]",–
Cc1noc(C)c1CCC(=O)NC1CCCN(Cc2ccc(CC(C)C)cc2)C1 (configuration not stated),active: 14.6 µM,–
CC(=O)c1ccc(OCC(O)CN2CCN(c3ccccn3)CC2)cc1 (configuration not stated),–,inactive: -6.47%
COc1ccc2[nH]c(=O)c(CN(C(=O)c3cccnc3)c3ccc(C)c(C)c3)cc2c1,"inconclusive: 23.1 µM [inhibitor, partial curve]",–
CCOc1ccc(N(CC(=O)Nc2cccc(Cl)c2)S(=O)(=O)c2c(C)noc2C)cc1,active: 11.6 µM,–
Cc1ccc2oc(=O)c3cc(C(=O)NCCCN4CCCCCC4)sc3c2c1,"inconclusive: 18.4 µM [inhibitor, single point]",–
Cc1ccc(NC(=O)c2cnn(-c3ccccc3)c2NC(=O)c2ccco2)cc1,"inconclusive: 29.1 µM [inhibitor, partial curve, poor fit]",–
CC(C)Cn1cnc2c1c(=O)n(CC(=O)Nc1ccc3c(c1)OCO3)c(=O)n2Cc1ccccc1,–,inactive: -16.9%
CCC(=O)N1CCc2cc(Br)cc(S(=O)(=O)N3CCCCCC3)c21,"inconclusive: 29.1 µM [inhibitor, single point]",–
Cc1ccc(N2CCN(C(=O)c3cc4cc5ccc(C)cc5nc4s3)CC2C)cc1 (configuration not stated),–,inactive: -1.75%
COc1cc(C=O)ccc1OCCOCCOc1cc(C)ccc1Cl,"inconclusive: 16.4 µM [inhibitor, single point]",–
CC1CS(=O)(=O)CCN1N=Cc1ccc([N+](=O)[O-])o1 (configuration not stated),"inconclusive: 18.4 µM [inhibitor, single point]",–
COc1cc(C(C)=O)ccc1OC(=O)c1cc2cccc(OC)c2oc1=O,–,inactive: 18.7%
COc1cccc(CN2CCC(n3nccc3NC(=O)CCCc3ccccc3)CC2)c1O,"inconclusive: 29.1 µM [inhibitor, single point]",–
CCOC(=O)c1c(C)[nH]c(C)c1C(=O)COC(=O)c1cccnc1SC,–,inactive: -28.4%
CC(C)(C)C(=O)/C=C/Nc1ccccc1O,active: 13 µM,–
CCc1ccc(CNC(=O)Cn2nc(-c3ccc(C)cc3)ccc2=O)cc1,"inconclusive: 29.1 µM [inhibitor, single point]",–
O=C(O)CCNC(=O)/C(=C/c1ccco1)NC(=O)c1ccco1,–,inactive: -1.88%
CCOc1ccc(NC(=O)C(C)Sc2nnc(C)n2C)cc1 (configuration not stated),"inconclusive: 23.1 µM [inhibitor, single point]",–
